According to paper PMC4336329 (PLoS ONE, 2015):
The campaign covered roughly 310,000 compounds. About 2,200 (0.71%) showed an effect of 50% or more. The effect is printed as a negative number. The list shows a part of the results.

Molecular target: human ether-à-go-go-related gene (hERG) potassium channel (human, UniProt Q12809)
Assay: primary screen, population patch clamp on CHO cells stably expressing hERG

Chain of human ether-à-go-go-related gene (hERG) potassium channel (Q12809 whole entry, looked up): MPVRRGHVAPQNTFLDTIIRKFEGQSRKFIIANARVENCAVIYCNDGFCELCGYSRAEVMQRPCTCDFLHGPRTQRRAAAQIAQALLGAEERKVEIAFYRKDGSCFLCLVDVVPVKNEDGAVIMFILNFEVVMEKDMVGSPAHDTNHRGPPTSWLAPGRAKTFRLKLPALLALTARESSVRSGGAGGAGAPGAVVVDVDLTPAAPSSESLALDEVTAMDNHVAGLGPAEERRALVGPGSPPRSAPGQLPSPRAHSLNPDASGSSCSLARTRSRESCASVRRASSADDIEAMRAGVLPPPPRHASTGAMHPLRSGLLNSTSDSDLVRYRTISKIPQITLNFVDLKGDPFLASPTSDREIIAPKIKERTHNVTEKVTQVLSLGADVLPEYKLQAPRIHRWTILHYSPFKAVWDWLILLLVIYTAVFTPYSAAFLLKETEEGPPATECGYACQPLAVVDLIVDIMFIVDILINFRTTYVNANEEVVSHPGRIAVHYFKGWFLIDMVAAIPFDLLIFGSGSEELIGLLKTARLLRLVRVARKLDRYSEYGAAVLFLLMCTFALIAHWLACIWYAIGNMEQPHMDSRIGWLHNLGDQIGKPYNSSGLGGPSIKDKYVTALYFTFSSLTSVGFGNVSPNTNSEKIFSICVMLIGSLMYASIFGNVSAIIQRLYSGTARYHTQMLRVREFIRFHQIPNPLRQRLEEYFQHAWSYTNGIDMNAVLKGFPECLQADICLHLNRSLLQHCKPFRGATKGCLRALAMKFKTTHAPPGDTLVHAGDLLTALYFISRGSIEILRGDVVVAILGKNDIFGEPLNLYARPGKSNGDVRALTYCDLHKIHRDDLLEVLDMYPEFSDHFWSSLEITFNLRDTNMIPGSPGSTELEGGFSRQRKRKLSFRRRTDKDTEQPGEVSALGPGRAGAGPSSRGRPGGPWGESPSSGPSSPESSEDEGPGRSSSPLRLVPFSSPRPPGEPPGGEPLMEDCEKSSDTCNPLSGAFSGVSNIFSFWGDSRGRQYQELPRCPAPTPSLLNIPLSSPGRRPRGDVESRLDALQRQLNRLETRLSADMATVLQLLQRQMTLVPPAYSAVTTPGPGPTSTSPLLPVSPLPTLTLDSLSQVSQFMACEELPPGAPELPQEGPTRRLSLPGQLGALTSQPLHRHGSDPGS

Row | Compound | hERG current change (%, negative = inhibition) at 1uM [%]
1 | COc1ccc(S(=O)(=O)Nc2cccc(NC(C)=O)c2)cc1 | 0.273
2 | CC1CCC(=NNC(=O)Cc2ccccc2)CC1 (centres unmarked) | 14.1
3 | Cc1ccc(S(=O)(=O)N2CCOCC2)cc1NC(=O)C1CC(=O)N(c2ccc3c(c2)OCCO3)C1 (centres unmarked) | 19.8
4 | Cc1ccccc1OCC(=O)Nc1nc(-c2ccncc2)cs1 | 8.1
5 | COc1ccc(NC(=O)c2c(Cl)nc3ccccn23)cc1 | 1.32
6 | Cc1cccc(N(C)S(=O)(=O)c2ccc3[nH]c(=O)c(=O)[nH]c3c2)c1 | 4.77
7 | Cc1ccc(-c2cc3ccccc3nc2N2CCOCC2)cc1 | 9.78
8 | COc1ccc(-c2nc3cc(NC(=O)Cc4ccc(OC)c(OC)c4)ccc3o2)cc1 | 3.36
9 | O=C(NCc1ccco1)C1CC(=O)N(c2ccc(F)cc2)C1 (centres unmarked) | -19.2
10 | CC1CCN(c2nc3c(c(=O)[nH]c(=O)n3C)n2Cc2ccccc2Cl)CC1 | 8.48
11 | O=C(Cn1nc(-c2ccccc2)ccc1=O)Nc1ccc(N2CCN(C(=O)c3cccs3)CC2)cc1 | 5.01
12 | Cc1ccc(S(=O)(=O)Oc2ccccc2/C=N/NC(N)=S)cc1 | 12.9
13 | Cc1cc(S(=O)(=O)N2CCN=C2c2ccccc2)c(Cl)cc1Cl | 16.5
14 | Nc1cc(C(=O)O)ccc1Nc1ccc(F)c(F)c1 | 8.48
15 | Brc1cccc(CNCc2ccncc2)c1 | 9.3
16 | Clc1cccc(-c2nc(NCC3CCCO3)c3ccccc3n2)c1 (centres unmarked) | 5.37
17 | CCCCN(C(=O)c1ccc(C#N)cc1)c1c(N)n(CCC)c(=O)[nH]c1=O | 10.5
18 | CC(=O)[C@H]1[C@@H]2C(=O)N(c3cccc(Cl)c3)C(=O)[C@@H]2[C@H]2c3ccccc3C=CN21 | 12.4
19 | COc1ccc(Oc2cccc(Cl)c2CNC(=O)CSCC(=O)O)cc1 | 10
20 | COC(=O)c1ccccc1N1CCS(=O)(=O)CC1 | -8.61
21 | CCCn1c(CCC(=O)O)ccc1-c1cccs1 | 8.19
22 | COc1ccc(OC)c(NC(=O)CSc2nn3c(=O)c(C)nnc3s2)c1 | 14.5
23 | Cc1c(C)n(C)c2ccc(C(=O)NCCCN3CCN(c4ccccc4F)CC3)cc12 | -9.04

Row | Compound | hERG current change (%, negative = inhibition) at 1uM [%]
24 | COc1ccc(C(=O)O)cc1Nc1cc(C)nc2ncnn12 | 10.6
25 | O=C(COC(=O)c1ccccc1F)NC1CCCC1 | 11.7
26 | CCC(=O)N1N=C(c2ccc(C)o2)CC1c1ccc(Br)cc1 (centres unmarked) | 16.6
27 | O=C(OCc1nc2ccc(Cl)cc2n1CCO)c1ccc(O)cc1 | 10
28 | COc1cc2ncnc(NCc3cccc(F)c3F)c2cc1OC | 13.3
29 | CCc1ccc(-c2nc(CN3CCC(C(=O)NCCc4ccc(OC)c(OC)c4)CC3)c(C)o2)cc1 | -40
30 | Cc1cc(C)c(S(=O)(=O)N2CCCC2=O)c(C)c1N(C)S(C)(=O)=O | 14.7
31 | COc1ccc(C2=CC(=O)OC3(CCCC3)O2)cc1 | -2.47
32 | CC(=O)N1CCCc2cc(S(=O)(=O)N3CCCC(C(=O)NCc4ccccc4)C3)ccc21 (centres unmarked) | 6.19
33 | Cc1cccc(OCCn2cc(/C=N/NC(=O)c3ccncc3)c3ccccc32)c1 | 9.7
34 | COc1ccc(Nc2ccc(N3C(=O)CC(C)C3=O)cc2[N+](=O)[O-])cn1 (centres unmarked) | 9.69
35 | S=c1[nH]nc(-c2cccnc2)n1/N=C/c1cccs1 | 12.5
36 | Cc1cc(C)c2ccc(C(=O)O)nc2c1O | 6.32
37 | CC(C)N1CCN(Cc2ccc(Sc3nncn3C)o2)CC1CCO (centres unmarked) | 11.8
38 | COc1cc(/C=C(\NC(=O)c2ccccc2)C(=O)Nc2nccs2)ccc1OC(C)=O | 14.7
39 | Br.CCCCCN1C2=NCCN2c2ccccc21 | -58.9
40 | COC(=O)c1cc(-c2ccccc2)n(CCN)c1C.Cl | 10.7
41 | Cc1ccc(C2NC(=O)NC3=C2CCc2ccccc23)cc1 (centres unmarked) | 4.51
42 | CCN(CC)P(=O)(Nc1ccccc1Br)c1ccc(N(C)C)cc1NC(=O)c1ccco1 (centres unmarked) | 2.61
43 | Cc1cc(NC(=O)c2cccs2)cc(-c2nc3ncccc3o2)c1O | 9.47
44 | Cc1[nH]c2ccccc2c1SCCNC(=O)c1ccc(S(=O)(=O)N2CCCC2)cc1 | 2.47
45 | C/C(=N/NC(=O)CC1N=C(Cc2ccccc2)NNC1=O)c1cccnc1 (centres unmarked) | 9.54
46 | CCOc1ccc(N(CC(=O)NC(C(C)C)C(C)C)S(=O)(=O)c2ccc(OC)c(OC)c2)cc1 | 19.4

Row | Compound | hERG current change (%, negative = inhibition) at 1uM [%]
47 | CC(=O)N1N=C(c2ccco2)CC1c1ccc(Cl)o1 (centres unmarked) | 21.4
48 | Cn1c(=O)[nH]c(=O)c2c1nc(N1CCOCC1)n2CCSc1nc2ccccc2[nH]1 | 16.8
49 | COc1cccc(OC)c1OCCCCn1cnc2ccccc2c1=O.O=C(O)C(=O)O | -5.18
50 | Oc1c(Br)cc(C2N=C(c3ccccc3Cl)NO2)cc1Br (centres unmarked) | 0.471
51 | COc1ccc(CNC(=O)c2cccc(-c3ccc(C)c4ccccc34)n2)cc1 | 8.29
52 | COc1ccc(-c2nc(CSCC(=O)N3CCN(C(=O)c4ccco4)CC3)c(C)o2)cc1OC | -2.27
53 | C=CCn1c(Cc2nc3ccccc3[nH]2)n[nH]c1=S | 13.4
54 | Cc1cccc(NC(=O)CSc2nc3[nH]ncc3c(=O)[nH]2)c1C | 16.4
55 | O=C1c2ccccc2NC(c2cccc(O)c2)N1c1ccccc1 (centres unmarked) | 20.4
56 | COc1ccc(-n2c(SCC(=O)NCC3CCCO3)nc3n[nH]c(C)c3c2=N)cc1 (centres unmarked) | 7.29
57 | COc1ccc(CCNC(=O)CN(c2ccccc2OC)S(C)(=O)=O)cc1 | 5.19
58 | O=C(NC(=S)NNC(=O)c1cnccn1)c1ccc(Cl)cc1 | 11.2
59 | Cc1ccc(-n2nnnc2SCC(=O)N2c3ccccc3NC(=O)C2(C)C)cc1 | -4.24
60 | COc1cc(OC)cc(C(=O)NC(C(=O)Nc2ccc3c(c2)CCC3)C(C)C)c1 (centres unmarked) | 9.07
61 | CC(=O)c1ccccc1NS(=O)(=O)c1ccccc1Cl | 11
62 | Cc1ccccc1OCCC(=O)N(Cc1ccccc1)c1c(N)n(Cc2ccccc2)c(=O)[nH]c1=O | 3.9
63 | CC(C)C(=O)N=c1sc2cccc(F)c2n1C | -1.45
64 | O=C(Nc1ccccc1F)C1CCCN(S(=O)(=O)c2cccc3cccnc23)C1 (centres unmarked) | 2.79
65 | O=C(Oc1ccc(-c2nnco2)cc1)c1ccc(F)c(S(=O)(=O)N2CCOCC2)c1 | 11.6
66 | COc1ccc(S(=O)(=O)N2CCCCC2)cc1NC(=O)CSc1nnc(C2CC2)n1C | -2.45
67 | CC(=O)NCCOc1ccc2oc3ccccc3c2c1 | 3.44
68 | CC(Cc1cccs1)NC(=O)CCCn1nnnc1CN1CCOCC1 (centres unmarked) | 13.7
69 | CN(c1ccccc1)S(=O)(=O)c1ccc(Cl)nc1 | 1.62

Row | Compound | hERG current change (%, negative = inhibition) at 1uM [%]
70 | CCOC(=O)C1CCN(c2nc3cc(OC)ccc3cc2C#N)CC1 | -7.3
71 | O=C(CSc1nc2ccccc2c(=O)n1CC1CCCO1)Nc1ccccc1 (centres unmarked) | -5
72 | O=C(CSc1nccn1-c1ccccc1)Nc1ccc2c(c1)OCO2 | 13.3
73 | CCCSc1nc(=O)n2cccc(C)c2n1 | -2.94
74 | Cc1nn(-c2ccccc2)nc1-c1nnc(-c2ccc(C(F)(F)F)cc2)o1 | 19.8
75 | CCN(CC(=O)NCc1cccs1)C(=O)c1cccc(S(=O)(=O)Nc2ccccc2Cl)c1 | -6.48
76 | CN(C)C=NC(=O)c1cc(C(=O)c2ccc(Cl)cc2Cl)c[nH]1 | 12.6
77 | CCCc1cc(=O)[nH]c(SCC(=O)OCc2ccccc2)n1 | 6.22
78 | C/C(=C/C(=O)O)C(=O)Nc1cccc(C(F)(F)F)c1 | -2.33
79 | N/C(=N\OC(=O)c1cnn(-c2ccccc2)c1C(F)(F)F)c1cc(C(F)(F)F)cc(C(F)(F)F)c1 | 12.9
80 | CCOCc1nc(N)[nH]c(=O)c1Cc1ccc(OC(C)C)cc1 | 11.5
81 | COc1ccc(NC(=O)CS(=O)CC(=O)Nc2ccc(OC)c(OC)c2)cc1 (centres unmarked) | 14.4
82 | CC(C)Cn1c(N)c(C(=O)COC(=O)Cc2cccs2)c(=O)n(C)c1=O | -16
83 | COc1cc(C(=S)N2CCOCC2)cc(OC)c1OS(=O)(=O)c1ccc(NC(C)=O)cc1 | -4.68
84 | O=c1c2cc(NC(=S)NCc3ccccn3)ccc2nc2n1CCCCC2 | 10.4
85 | O=C(N/N=C/c1cc([N+](=O)[O-])ccc1O)c1ccncc1 | 8.43
86 | COc1ccccc1C1CN=NC12CCCc1ccccc1C2=O (centres unmarked) | 18.8
87 | CCOC(=O)C1=C(C)Nc2ncnn2C1c1ccccc1F (centres unmarked) | 4.29
88 | CN(CCc1nc2ccc(Cl)cc2[nH]1)Cc1nc(CC2CC2)no1 | -21.4
89 | Fc1ccccc1Cc1ccc(Cl)nn1 | 4.8
